From patent publication US20260248802A1, “DOSAGE OF BALOXAVIR MARBOXIL FOR PEDIATRIC PATIENTS” (Hoffmann-La Roche Inc., priority 2019, published 2026)
“And” between values parts separate entries of the source, which are not always exact repeats. Equal entries are not always repeated. Where two headings read alike, the source gives them in different places.

Legend:
[1] = pediatric Japanese patients; considered not related to study drug; cited from earlier work
influenza = test: miniSTONE-2 phase III study in children 1 to <12 years: efficacy and virology; conditions: by virus titer, same regimens
[2] = non-Asian adult patients, 40 mg, T0831 study; cited from earlier work
[3] = Sparse PK data in Asian pediatric study 1602T0833 (patients weighing less than 20 kg); type: in vivo, human; conditions: 1 mg/kg; Asian pediatrics weighing less than 20 kg
[4] = Child weighing 24 kg; cited from earlier work
[5] = Japanese paediatrics
[6] = Population PK model in adults and adolescents with influenza (T0821 and T0831; report S-033188-CB-272-N); type: in vivo, human
[7] = Anderson 2011; cited from earlier work

COC(=O)OCOc1c2n(ccc1=O)N([C@@H]1c3ccccc3SCc3c1ccc(F)c3F)[C@@H]1COCCN1C2=O [baloxavir marboxil]
most common adverse event [1]: vomiting | median time to cessation of viral shedding (influenza): 24.2 h

O=C1c2c(O)c(=O)ccn2N([C@@H]2c3ccccc3SCc3c2ccc(F)c3F)[C@@H]2COCCN12 [baloxavir]
AUC [2]: 3371 ng·h/mL | Cmax [2]: 56.9 ng/mL | drug concentrations briefly after dosing (mean) [3]: ~100 ng/mL | Population median oral clearance [4]: about 3 L/h | ALAG, absorption lag time (Estimate) [5]: 0.47 h | Ka, first-order rate of absorption (Estimate) [5]: 0.702 h⁻¹ | CL/F, apparent total clearance (Estimate) ([5]; body weight 20.7): 2.72 L/h | Q/F, apparent inter-compartmental clearance (Estimate) ([5]; body weight 20.7): 1.06 L/h | Vc/F, apparent volume of central compartment (Estimate) ([5]; body weight 20.7): 117 L | Vp/F, apparent volume of peripheral compartment (Estimate) ([5]; body weight 20.7): 67.1 L | ALAG, absorption lag time (Estimate) ([6]; adults): 0.32 h | Q/F, apparent inter-compartmental clearance (Estimate) ([6]; adults, body weight 64.8): 6.27 L/h | Vp/F, apparent volume of peripheral compartment (Estimate) ([6]; adults, body weight 64.8): 212 L | Vc/F, apparent volume of central compartment (Estimate) ([6]; adults, body weight 64.8, Asian): 333 L | Ka, first-order rate of absorption (Estimate) ([6]; adults, male): 1.10 h⁻¹ | CL/F, apparent total clearance (Estimate) ([6]; adults, typical value at body weight 64.8, Asian, ALT 17): 5.4 L/h and 5.40 L/h | CL/F higher in non-Japanese at the same bodyweight ([6]; non-Japanese versus Japanese, on average): 1.7 fold

CN1CC[C@]23c4c5ccc(O)c4O[C@H]2[C@@H](O)C=C[C@H]3[C@H]1C5 [morphine]
γ, hill coefficient [7]: 3.92

CCOC(=O)C1=C[C@@H](OC(CC)CC)[C@H](NC(C)=O)[C@@H](N)C1 [oseltamivir, reference compound]
median time to cessation of viral shedding (influenza): 75.8 h and 76 h
